Results on 1 molecule are retold here after patent US20220380450A1 (AstraZeneca / MedImmune, published 2022).

This assay deals with T1, Untagged IL33-01 (human, UniProt O95760 112-270).
T1 construct: Reduced wild type form; also called reduced IL-33; WT IL-33
T1 sequence: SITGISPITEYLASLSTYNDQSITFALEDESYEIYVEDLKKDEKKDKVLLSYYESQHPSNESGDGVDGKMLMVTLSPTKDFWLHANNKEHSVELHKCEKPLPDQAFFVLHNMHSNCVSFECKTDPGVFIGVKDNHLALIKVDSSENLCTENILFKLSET
The assay can be described thus: depletion of remaining reduced IL-33 from the oxIL-33 preparation, in solution, then size exclusion. As to the method:
Aggregates generated during the oxidation process were removed from the sample by loading it on a HiTrap Capto Q ImpRes anion exchange column (GE Healthcare, 17547055). […] Final product quality was assessed by SDS-PAGE, HP-SEC and RP-HPLC.
A general note: Size exclusion chromatography separates by hydrodynamic size, large species first.

B1: Human ST2S-huIgG1 Fc-His6 (Fc fusion)
chain: KFSKQSWGLENEALIVRCPRQGKPSYTVDWYYSQTNKSIPTQERNRVFASGQLLKFLPAAVADSGIYTCIVRSPTFNRTGYANVTIYKKQSDCNVPDYLMYSTVSGSEKNSKIYCPTIDLYNWTAPLEWFKNCQALQGSRYRAHKSFLVIDNVMTEDAGDYTCKFIHNENGANYSVTATRSFTVKDEQGFSLFPVIGAPAQNEIKEVEIGKNANLTCSACFGKGTQFLAAVLWQLNGTKITDFGEPRIQQEEGQNQSFSNGLACLDMVLRIADVKEEDLLLQYDCLALNLHGLRRHTVRLSRKNPSKECF[human IgG1 Fc and a few adjoining residues not given here]
notes: The underlining of the signal peptide is lost in the text; also called ST2S-Fc-His6; soluble human ST2S extracellular domain fused to human IgG1 Fc-His6
B1: the binding result was “binds”.
